# Experimental data from the RNAGym collection of RNA variant scans (doi:10.7554/elife.90254).
# Read counts are not given, so values of variants with three or more changes are uncertain.
# B1: LINE1-mini (parent)
# chain: GGCAGAGCUCAACACAGCGUGGCAAAGUGGCUGUGGCUAGACUGCC
# Variants of: B1
# Experiment: self-cleavage, relative activity (ratio to wild type); higher = more cleavage; in vitro, sequencing; the parent is a self-cleaving ribozyme
row,Variant,self-cleavage
1,UGCAGAGCUCAACAAAGAGUGGAAAAGUGGCUGUGGCUAGACUGCC [G1U C15A C18A C23A],0.03
2,UGCAGAGCUCAACACAGCGUGGUACAGUGGCUGUGGCUAGACUGCC [G1U C23U A25C],1.73
3,UGCAGAGCUCAACACAGCGUGGUAUAGUGGCUGUGGCUAGACUGCC [G1U C23U A25U],0.19
4,UGCAGAGCUCAAAAAAGCGUGGCAAAGUGGCUGUGGCUAGACUGCC [G1U C13A C15A],0.03
5,UGCAGAGCUAUACACAGCGUGGCAAAGUGGCUGUGGCUAGACUGCC [G1U C10A A11U],0.03
6,UGCAGAGCUUCACACAGCGUGACAAAGUGGGUGUGGCUAGACUGCC [G1U C10U A11C G22A C31G],0.01
7,UGCAGAGCUCAACACAGGGUGGCAAACUGGCUGUGGCUAGACUGCC [G1U C18G G27C],0.07
8,UGCAGAGCUCAACAAAGCGUGGCAAACUGGCUGUGGCUAGACUGCC [G1U C15A G27C],0.03
9,UGCAGAGCUCAAGACGGCGUGGAAUAGUGGCUGUGGCUAGACUGCC [G1U C13G A16G C23A A25U],0.22
10,UGCAGAGCUUAACACAGCGAGGCAAAGUGGCUGUGGCUAGACUGCC [G1U C10U U20A],0.03
11,UGCAGAGCUCAACACAGCGUGGCAAAGUGGAUGUGGCUAGACUGCU [G1U C31A C46U],0.06
12,UGCAGAGCUCAACACAGCGUGGUAAAGUGGCUGUGGCUAGACUGUC [G1U C23U C45U],0.26
13,UGCAGAGCUCAACACAGCGUGGCAAAGUGGAUGUAGCUAGACUGCC [G1U C31A G35A],0
14,UGCAGAGCUCAACAAAGCGUGGCAAAUUGGUUGUGGCUACACUGCC [G1U C15A G27U C31U G40C],0.02
15,UGCAGAGCUCAACACAGCGUGGUAAAGUGCCUGUGGCUAUACUGCC [G1U C23U G30C G40U],0.02
16,UGCAGAGUGCAACACAGCUUGGCAAAGUGGCGGUGGCUAGACUGCU [G1U C8U U9G G19U U32G C46U],0.03
17,UGCAGAGCUCAAGACAGCGUGGCAAAGUGGUUGUGGCUAGACUGCC [G1U C13G C31U],0.01
18,UGCAGAGCUCAAUCAAGCGUGGCAAAGUGGGUGUGGCUAGACUGCC [G1U C13U A14C C15A C31G],0.05
19,UGCAGAGCUCAACAGAGCGUGGCAAAGUGGCUGUGUCUAGACUGCC [G1U C15G G36U],0.02

row,Variant,self-cleavage
1,UGCAGAGCUUAGCAUAGCAUGACAAAGUGGCUGUGGCUAGACUGCC [G1U C10U A12G C15U G19A G22A],0.01
2,UGCAGAGCUCAACACAGAGUGGCAAAGUUGCUGUGGCUAGACUGCC [G1U C18A G29U],0.87
3,UGCAGAGCUUAACACAGCGUGGCAAAGUGGCGGUGGCUAGACUGCC [G1U C10U U32G],0.02
4,UGCAGAGCUCAACACAGAGUGGCAAAGAGUCUGUGGCUGGACUGCC [G1U C18A U28A G30U A39G],0.01
5,UGCAGAGCUCAAGACAGCGUGGCACAGUGGAUGUGGCUUGACUGCC [G1U C13G A25C C31A A39U],0.07
6,UGCAGAGCUCAACACAGCGUGGAAAAGUGGCGCUGGCUAGACUGCC [G1U C23A U32G G33C],0.04
7,UGCAGAGCUCAAUACAGCGUGGCAAAGUGGCUGUGGAUAGACUGCC [G1U C13U C37A],0
8,UGCAGAGCUCAACACAGAGUGGCAAAGCGGCUAUGGCUAGACUGCC [G1U C18A U28C G33A],0
9,UGCAGAGCUCAAUACAGCGUGGCAAAUUGGCUGUGGCUAGUCUGCA [G1U C13U G27U A41U C46A],0.05
10,UGCAGAGCUGAACACAUCGUGGCAAAGUUGCAGUGGCUAGACUGCC [G1U C10G G17U G29U U32A],0.02
11,UGCAGAGCUCAACACAGCGUGGUAACGUAGCCGUGGCUAGACUGCC [G1U C23U A26C G29A U32C],1.04
12,UGCAGAGCUCAACAAAGCGUAGCAAAGUAGCUGUGGCUAGACUGCC [G1U C15A G21A G29A],0.01
13,UGCAGAGCUAAACACAGCGAGACACAGUGGCUGUGGCUAUACAGCC [G1U C10A U20A G22A A25C G40U U43A],0
14,UGCAGAGCUCAAUACAGCGUUGCAAAGUGGCUGUGGCUAGACUGCC [G1U C13U G21U],0.07
15,UGCAGAGCUCAAUACAGUGGGGCAAAGUGGCAGUCGCUAGACUUGA [G1U C13U C18U U20G U32A G35C G44U C45G C46A],0.06
16,UGCAGAGCUUAACACAGCGCCGCAAAGUGGCUGUGGCUAGACGGCC [G1U C10U U20C G21C U43G],0
17,UGCAGAGCUCAACAAGGCGUGGCAUAGUGGCUGUGGCUAGACUGCC [G1U C15A A16G A25U],0.02
18,UGCAGAGCUAAACACAGCGUGCGAAAGUGGCUGUGGCUAGACUGCC [G1U C10A G22C C23G],0.02
19,UGCAGAGCUCAACACAGUGUGGCAAAGUGCCUGUGGCUAGACUGCC [G1U C18U G30C],0.11

row,Variant,self-cleavage
1,UGCAGAGCUCAACACAGUGUGGCAAAGUGUCUGUGGCUAGACUGCC [G1U C18U G30U],0.24
2,UGCAGAGCUCAAGACAGCGUGGGAAAGUGGCUGUCGUUAGACUGCA [G1U C13G C23G G35C C37U C46A],0.02
3,UGCAGAGCUCAAAACAGCGUUGCAAAGUGGCUGUGGCUAGACUGCC [G1U C13A G21U],0.05
4,UGCAGAGCUCAACAUAGCGUGGCAAAGUGCCUGUGGCGAGACUGCC [G1U C15U G30C U38G],0.01
5,UGCAGAGCUAAACACAGUGUGGCAAAGUUACUGUGGCUAGACUGCC [G1U C10A C18U G29U G30A],0.02
6,UGCAGAGCUCAACACAGAGUGGCAAAGUGGCUGUUGCUAGACUGCC [G1U C18A G35U],0.01
7,UGCAGAGCUCAAAACAGCGUUGCUAAGUGGCUGUGGCUAGACUGCC [G1U C13A G21U A24U],0.03
8,UGCAGAGCUCAACAAAGCGUGGCAAAGUGGCUGUGGCUAGACUCCC [G1U C15A G44C],0.06
9,UGCAGAGCUCAACACAGCGUGGGAAAGGGGCAGUGGCUAGACGGCC [G1U C23G U28G U32A U43G],0.03
10,UGCAGAGCUCAACACAGCGUGGGAAAGUGGCUGUGGCUAGACUUCC [G1U C23G G44U],0.09
11,UGCAGAGCUCAAAACAGCGGGGCAAACUGGCUGUGGCAAGACUGCC [G1U C13A U20G G27C U38A],0
12,UGCAGAGCUCAACAGAGCGUGGCAAAAUGGCUGUGGCUAGACUGCC [G1U C15G G27A],0.01
13,UGCAGAGCUCAACACAGCGUGGGAAAGUCGCUGUGGCAAGACUGCC [G1U C23G G29C U38A],0.04
14,UGCAGAGCUCAAUACAGCGUUGCAAAGUGGUUGUGGCUAGACUGCC [G1U C13U G21U C31U],0.01
15,UGCAGAGCUCAACACAGCGUGGCAAAGUGGAUGUGCCUAGACUGCC [G1U C31A G36C],0.03
16,UGCAGAGCUCAACAGAGCGUGGCAAAGUGGCUGUCGCUAGACUUCC [G1U C15G G35C G44U],0.01
17,UGCAGAGCUCAACAUAGCGUGGCAAAGUUGCUGUGGCUAGUCUGCC [G1U C15U G29U A41U],0.15
18,UGCAGAGCUCAACACAGCGUGGCAAAGUGGAUGUGGUUAGACUGUC [G1U C31A C37U C45U],0.03
